From a collection of fitness landscapes (doi:10.1016/j.celrep.2020.107928)
Whole data set: some 81,000 sequences, median “one-hybrid fitness for binding NBS DNA” near -0.1, cut for the highest 2% near 0.36. The list shows a part of the results.

B1: Caulobacter ParB omega fusion; a variant is named by its letters at X, in order, B8GW30 (parent)
chain: MESVVVGEPGMSEGRRGLGRGLSALLGEVDAAPAQAPGEQLGGSREAPIEILQRNPDQPRRTFREEDLEDLSNSIREKGVLQPILVRPSPDTAGEYQIVAGERAWRAAQRAGLKTVPIMVRELDDLAVLEIGIIENVQRADLNVLEEALSYKVLMEKFERTQENIAQTIGKSXSHVANXMRLLXLPDEVQSYLVSGELTAXHARAIAAAADPVALAKQIIEGGLSVRETEALARKAPNLSAGKSKGGRPPRVKDTDTQALESDLSSVLGLDVSIDHRGSTGTLTITYATLEQLDDLCNRLTRGI

Variants of: B1
Assay: one-hybrid fitness for binding NBS DNA (the Noc-binding site; scaled: cognate 1, non-cognate 0); higher = stronger binding
Details: with NBS DNA site
How it was run: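 Selection: bacterial one-hybrid in E. coli USO, HIS3 reporter with the site 19 bp from the promoter, 48 hours at 37°C on M9-minus-histidine plus 0.1 mM IPTG and 5 mM 3-AT. Libraries were Caulobacter ParB with four randomised specificity codons, sequenced on Illumina before and after selection. Fitness is the rescaled log change in variant-to-wild-type read ratio, anchored to the cognate and non-cognate sites.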

Going from NLIS to QAGA, the “one-hybrid fitness for binding NBS DNA” value rises from ≤ 0.2 to 0.221.

PIVT and WAAW cannot be ordered by “one-hybrid fitness for binding NBS DNA” value: ≤ 0.2 for the first, ≤ 0.2 for the second.

HAPM and TCIT cannot be ordered by “one-hybrid fitness for binding NBS DNA” value: ≤ 0.2 for the first, ≤ 0.2 for the second.

VGVG and NNNN cannot be ordered by “one-hybrid fitness for binding NBS DNA” value: ≤ 0.2 for the first, ≤ 0.2 for the second.

HRWL and DQSP cannot be ordered by “one-hybrid fitness for binding NBS DNA” value: ≤ 0.2 for the first, ≤ 0.2 for the second.

YENR and MTMS cannot be ordered by “one-hybrid fitness for binding NBS DNA” value: ≤ 0.2 for the first, ≤ 0.2 for the second.

DGEN and KQET cannot be ordered by “one-hybrid fitness for binding NBS DNA” value: ≤ 0.2 for the first, ≤ 0.2 for the second.

HRSL and MCAN cannot be ordered by “one-hybrid fitness for binding NBS DNA” value: ≤ 0.2 for the first, ≤ 0.2 for the second.

PANC and CNVW cannot be ordered by “one-hybrid fitness for binding NBS DNA” value: ≤ 0.2 for the first, ≤ 0.2 for the second.

NASR and DDNE cannot be ordered by “one-hybrid fitness for binding NBS DNA” value: ≤ 0.2 for the first, ≤ 0.2 for the second.

RTAM and RHTI cannot be ordered by “one-hybrid fitness for binding NBS DNA” value: ≤ 0.2 for the first, ≤ 0.2 for the second.

LQVL and PPIN cannot be ordered by “one-hybrid fitness for binding NBS DNA” value: ≤ 0.2 for the first, ≤ 0.2 for the second.

ITTS and HKHV cannot be ordered by “one-hybrid fitness for binding NBS DNA” value: ≤ 0.2 for the first, ≤ 0.2 for the second.

SVPW and QCPD cannot be ordered by “one-hybrid fitness for binding NBS DNA” value: ≤ 0.2 for the first, ≤ 0.2 for the second.

PTGW and TAST cannot be ordered by “one-hybrid fitness for binding NBS DNA” value: ≤ 0.2 for the first, ≤ 0.2 for the second.

WLCC and GPEV cannot be ordered by “one-hybrid fitness for binding NBS DNA” value: ≤ 0.2 for the first, ≤ 0.2 for the second.

MARK and DTQA cannot be ordered by “one-hybrid fitness for binding NBS DNA” value: ≤ 0.2 for the first, ≤ 0.2 for the second.

First: ENDK
Second: RTHS
The “one-hybrid fitness for binding NBS DNA” value of the first is lower: ≤ 0.2 for the first, 0.54 for the second.

AWIV and MAVS cannot be ordered by “one-hybrid fitness for binding NBS DNA” value: ≤ 0.2 for the first, ≤ 0.2 for the second.

NPDS and VLTM cannot be ordered by “one-hybrid fitness for binding NBS DNA” value: ≤ 0.2 for the first, ≤ 0.2 for the second.

SRTI and TFVM cannot be ordered by “one-hybrid fitness for binding NBS DNA” value: ≤ 0.2 for the first, ≤ 0.2 for the second.

LMFS and LDPM cannot be ordered by “one-hybrid fitness for binding NBS DNA” value: ≤ 0.2 for the first, ≤ 0.2 for the second.

GHWT and MPPI cannot be ordered by “one-hybrid fitness for binding NBS DNA” value: ≤ 0.2 for the first, ≤ 0.2 for the second.

QYVV and AGVS cannot be ordered by “one-hybrid fitness for binding NBS DNA” value: ≤ 0.2 for the first, ≤ 0.2 for the second.

ARKQ and TRYD cannot be ordered by “one-hybrid fitness for binding NBS DNA” value: ≤ 0.2 for the first, ≤ 0.2 for the second.

MYSG and WSHA cannot be ordered by “one-hybrid fitness for binding NBS DNA” value: ≤ 0.2 for the first, ≤ 0.2 for the second.

KGLI and AVYL cannot be ordered by “one-hybrid fitness for binding NBS DNA” value: ≤ 0.2 for the first, ≤ 0.2 for the second.

QTVE and VNTC cannot be ordered by “one-hybrid fitness for binding NBS DNA” value: ≤ 0.2 for the first, ≤ 0.2 for the second.

PPYI and QLEF cannot be ordered by “one-hybrid fitness for binding NBS DNA” value: ≤ 0.2 for the first, ≤ 0.2 for the second.

NCYV and QYNL cannot be ordered by “one-hybrid fitness for binding NBS DNA” value: ≤ 0.2 for the first, ≤ 0.2 for the second.

ECDG and VWNM cannot be ordered by “one-hybrid fitness for binding NBS DNA” value: ≤ 0.2 for the first, ≤ 0.2 for the second.

SIGS and RTGI cannot be ordered by “one-hybrid fitness for binding NBS DNA” value: ≤ 0.2 for the first, ≤ 0.2 for the second.

GRMR and GPWG cannot be ordered by “one-hybrid fitness for binding NBS DNA” value: ≤ 0.2 for the first, ≤ 0.2 for the second.

KHNS and PNAE cannot be ordered by “one-hybrid fitness for binding NBS DNA” value: ≤ 0.2 for the first, ≤ 0.2 for the second.

ARPT and ADDS cannot be ordered by “one-hybrid fitness for binding NBS DNA” value: ≤ 0.2 for the first, ≤ 0.2 for the second.

NNIP and FWLT cannot be ordered by “one-hybrid fitness for binding NBS DNA” value: ≤ 0.2 for the first, ≤ 0.2 for the second.

TMVS and PARG cannot be ordered by “one-hybrid fitness for binding NBS DNA” value: ≤ 0.2 for the first, ≤ 0.2 for the second.

FPLF and EAHC cannot be ordered by “one-hybrid fitness for binding NBS DNA” value: ≤ 0.2 for the first, ≤ 0.2 for the second.

PWHT and DTSM cannot be ordered by “one-hybrid fitness for binding NBS DNA” value: ≤ 0.2 for the first, ≤ 0.2 for the second.

RDDT and QMEM cannot be ordered by “one-hybrid fitness for binding NBS DNA” value: ≤ 0.2 for the first, ≤ 0.2 for the second.

TDPA and ARGY cannot be ordered by “one-hybrid fitness for binding NBS DNA” value: ≤ 0.2 for the first, ≤ 0.2 for the second.

LMGI and GEDW cannot be ordered by “one-hybrid fitness for binding NBS DNA” value: ≤ 0.2 for the first, ≤ 0.2 for the second.

IRMT and HNSC cannot be ordered by “one-hybrid fitness for binding NBS DNA” value: ≤ 0.2 for the first, ≤ 0.2 for the second.

SWRR and GSAI cannot be ordered by “one-hybrid fitness for binding NBS DNA” value: ≤ 0.2 for the first, ≤ 0.2 for the second.

SVRL and CSCC cannot be ordered by “one-hybrid fitness for binding NBS DNA” value: ≤ 0.2 for the first, ≤ 0.2 for the second.

QGQC and RFDG cannot be ordered by “one-hybrid fitness for binding NBS DNA” value: ≤ 0.2 for the first, ≤ 0.2 for the second.

PPVQ and AGTE cannot be ordered by “one-hybrid fitness for binding NBS DNA” value: ≤ 0.2 for the first, ≤ 0.2 for the second.

NEHR and PNNH cannot be ordered by “one-hybrid fitness for binding NBS DNA” value: ≤ 0.2 for the first, ≤ 0.2 for the second.

EKQP and RFFD cannot be ordered by “one-hybrid fitness for binding NBS DNA” value: ≤ 0.2 for the first, ≤ 0.2 for the second.

THSY and LTFM cannot be ordered by “one-hybrid fitness for binding NBS DNA” value: ≤ 0.2 for the first, ≤ 0.2 for the second.

ALMG and RVQD cannot be ordered by “one-hybrid fitness for binding NBS DNA” value: ≤ 0.2 for the first, ≤ 0.2 for the second.

TRHA and SMKS cannot be ordered by “one-hybrid fitness for binding NBS DNA” value: ≤ 0.2 for the first, ≤ 0.2 for the second.

YAIC and RRWF cannot be ordered by “one-hybrid fitness for binding NBS DNA” value: ≤ 0.2 for the first, ≤ 0.2 for the second.

VRGY and AHDF cannot be ordered by “one-hybrid fitness for binding NBS DNA” value: ≤ 0.2 for the first, ≤ 0.2 for the second.

DSSV and LHST cannot be ordered by “one-hybrid fitness for binding NBS DNA” value: ≤ 0.2 for the first, ≤ 0.2 for the second.

HVPC and YQKN cannot be ordered by “one-hybrid fitness for binding NBS DNA” value: ≤ 0.2 for the first, ≤ 0.2 for the second.

PDQH and PQNP cannot be ordered by “one-hybrid fitness for binding NBS DNA” value: ≤ 0.2 for the first, ≤ 0.2 for the second.

AATT and DMKS cannot be ordered by “one-hybrid fitness for binding NBS DNA” value: ≤ 0.2 for the first, ≤ 0.2 for the second.

First: DTQK
Second: NRKT
The “one-hybrid fitness for binding NBS DNA” value of the first is lower: ≤ 0.2 for the first, 0.213 for the second.

MPTI and WKSG cannot be ordered by “one-hybrid fitness for binding NBS DNA” value: ≤ 0.2 for the first, ≤ 0.2 for the second.

LPHV and PSNR cannot be ordered by “one-hybrid fitness for binding NBS DNA” value: ≤ 0.2 for the first, ≤ 0.2 for the second.

DIFR and SDSC cannot be ordered by “one-hybrid fitness for binding NBS DNA” value: ≤ 0.2 for the first, ≤ 0.2 for the second.

AHQV and RGSG cannot be ordered by “one-hybrid fitness for binding NBS DNA” value: ≤ 0.2 for the first, ≤ 0.2 for the second.

ITGC and AARV cannot be ordered by “one-hybrid fitness for binding NBS DNA” value: ≤ 0.2 for the first, ≤ 0.2 for the second.

Going from QVYT to IEPF, the “one-hybrid fitness for binding NBS DNA” value falls from 0.268 to ≤ 0.2.

SRSM and CRPY cannot be ordered by “one-hybrid fitness for binding NBS DNA” value: ≤ 0.2 for the first, ≤ 0.2 for the second.

LSAA and DHGK cannot be ordered by “one-hybrid fitness for binding NBS DNA” value: ≤ 0.2 for the first, ≤ 0.2 for the second.

DPVR and LRIF cannot be ordered by “one-hybrid fitness for binding NBS DNA” value: ≤ 0.2 for the first, ≤ 0.2 for the second.

Going from RKIS to AHHT, the “one-hybrid fitness for binding NBS DNA” value falls from 0.403 to ≤ 0.2.

SETL and AWSF cannot be ordered by “one-hybrid fitness for binding NBS DNA” value: ≤ 0.2 for the first, ≤ 0.2 for the second.

IITM and ASMF cannot be ordered by “one-hybrid fitness for binding NBS DNA” value: ≤ 0.2 for the first, ≤ 0.2 for the second.

RRPL and CTRS cannot be ordered by “one-hybrid fitness for binding NBS DNA” value: ≤ 0.2 for the first, ≤ 0.2 for the second.

HPWS and HVKC cannot be ordered by “one-hybrid fitness for binding NBS DNA” value: ≤ 0.2 for the first, ≤ 0.2 for the second.

QCEV and NAVC cannot be ordered by “one-hybrid fitness for binding NBS DNA” value: ≤ 0.2 for the first, ≤ 0.2 for the second.

ACEY and TNCW cannot be ordered by “one-hybrid fitness for binding NBS DNA” value: ≤ 0.2 for the first, ≤ 0.2 for the second.

LIMY and ECKA cannot be ordered by “one-hybrid fitness for binding NBS DNA” value: ≤ 0.2 for the first, ≤ 0.2 for the second.

HTIS and ALST cannot be ordered by “one-hybrid fitness for binding NBS DNA” value: ≤ 0.2 for the first, ≤ 0.2 for the second.

NDGC and SDMR cannot be ordered by “one-hybrid fitness for binding NBS DNA” value: ≤ 0.2 for the first, ≤ 0.2 for the second.

NITV and THRM cannot be ordered by “one-hybrid fitness for binding NBS DNA” value: ≤ 0.2 for the first, ≤ 0.2 for the second.

WYVL and PSQR cannot be ordered by “one-hybrid fitness for binding NBS DNA” value: ≤ 0.2 for the first, ≤ 0.2 for the second.

SYGD and KMRA cannot be ordered by “one-hybrid fitness for binding NBS DNA” value: ≤ 0.2 for the first, ≤ 0.2 for the second.

TYRT and DGHH cannot be ordered by “one-hybrid fitness for binding NBS DNA” value: ≤ 0.2 for the first, ≤ 0.2 for the second.

RASV and IQTN cannot be ordered by “one-hybrid fitness for binding NBS DNA” value: ≤ 0.2 for the first, ≤ 0.2 for the second.

TKNK and SDWG cannot be ordered by “one-hybrid fitness for binding NBS DNA” value: ≤ 0.2 for the first, ≤ 0.2 for the second.

GKTG and NCWG cannot be ordered by “one-hybrid fitness for binding NBS DNA” value: ≤ 0.2 for the first, ≤ 0.2 for the second.

Going from RVRT to CGAW, the “one-hybrid fitness for binding NBS DNA” value falls from 0.631 to ≤ 0.2.

WDDL and DWSD cannot be ordered by “one-hybrid fitness for binding NBS DNA” value: ≤ 0.2 for the first, ≤ 0.2 for the second.

First: RFMG
Second: RLRH
The “one-hybrid fitness for binding NBS DNA” value of the first is lower: ≤ 0.2 for the first, 0.322 for the second.

AWPK and QLMI cannot be ordered by “one-hybrid fitness for binding NBS DNA” value: ≤ 0.2 for the first, ≤ 0.2 for the second.

LFLR and YGMR cannot be ordered by “one-hybrid fitness for binding NBS DNA” value: ≤ 0.2 for the first, ≤ 0.2 for the second.

HYGP and DRSH cannot be ordered by “one-hybrid fitness for binding NBS DNA” value: ≤ 0.2 for the first, ≤ 0.2 for the second.

RIKN and ESTD cannot be ordered by “one-hybrid fitness for binding NBS DNA” value: ≤ 0.2 for the first, ≤ 0.2 for the second.

PLRM and DRLL cannot be ordered by “one-hybrid fitness for binding NBS DNA” value: ≤ 0.2 for the first, ≤ 0.2 for the second.

VNLC and RLDG cannot be ordered by “one-hybrid fitness for binding NBS DNA” value: ≤ 0.2 for the first, ≤ 0.2 for the second.

Going from QRLS to PRCA, the “one-hybrid fitness for binding NBS DNA” value falls from 0.603 to ≤ 0.2.

SYET and VTPY cannot be ordered by “one-hybrid fitness for binding NBS DNA” value: ≤ 0.2 for the first, ≤ 0.2 for the second.

CWHV and QHVP cannot be ordered by “one-hybrid fitness for binding NBS DNA” value: ≤ 0.2 for the first, ≤ 0.2 for the second.

With KSQQ the “one-hybrid fitness for binding NBS DNA” value was ≤ 0.2.
